Hit rate of the full screen: of about 410,000 compounds, about 7,200 (1.8%) were called active. Inconclusive means that the source gave no clear call. Such entries were picked first, then a sample of the others. Calls come from the whole dose curve; as a rule, active = well fitted activation curve with a large enough effect; inconclusive = small, poorly fitted or top-dose-only effect, or another doubt; inactive = no such curve, though single readings can be large or run the other way. No potency is given beside an inconclusive call; the fits are too rough.
Assay: qHTS of TDP-43 Inhibitors; note: nearly all actives have a fitted effect of over 50% in size; for growth rescue (activation): % of control where 0% means no effect
Details: TDP-43 expressing yeast growth rescue, BacTiter-Glo, 24 h; growth rescue (activation): at 46.1 µM (top of the series) unless noted
Outline: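 In this qHTS, compounds that restore growth of yeast expressing TDP-43 appear as activators. Cells (OD600=0.02, galactose medium, raffinose-pregrown) are incubated with compound 24 hr at 30 deg C and growth is quantified by BacTiter-Glo.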
Potency is the fitted concentration of half-maximal effect; tags give direction and shape of the fitted curve.

Row | Structure (SMILES) | Potency | growth rescue (activation)
1 | Clc1ccccc1N1CCN(Cc2nnc(-c3ccccc3)o2)CC1 | inconclusive [activator, partial curve] | 
2 | Cc1ccc(Cl)cc1-n1c(CCC(=O)O)ccc1-c1cccs1 | active: 12.6 µM | 
3 | CCOC(=O)N1CCN(CC(=O)Nc2sccc2C#N)CC1 | inconclusive [activator, single point] | 
4 | CCc1nnc(NC(=O)c2ccc(S(=O)(=O)N3CCCc4ccccc43)cc2)o1 | inconclusive [activator, single point] | 
5 | N#CSCC(=O)c1cccc2ccccc12 |  | inconclusive: -88% [activator]
6 | CCc1cccc(NC(=O)Cn2c(=O)n(-c3ccccc3C)c(=O)c3c2c2cc(C)ccc2n3C)c1 | inconclusive [activator, partial curve, poor fit] | 
7 | Cc1ccc(NC(=S)c2ccncc2)cc1 |  | inactive: 19.4%
8 | NC(=Nc1nc(-c2ccccn2)cc2ccccc12)c1ccccn1 | active: 3.16 µM | 
9 | CC(=O)Nc1ccc(C=CC=Cc2cccc([N+](=O)[O-])c2)cc1 | active: 14.1 µM | 
10 | COc1ccc(/C=C2\COc3ccccc3C2=O)cc1OC | active: 2.82 µM | 
11 | COc1cc(OC)cc(C(=O)NCC(=O)OCc2csc(-c3ccccc3)n2)c1 | inconclusive [activator, single point] | 
12 | COc1ccc(S(=O)(=O)N(C)[C@H]2C[C@H]3c4cc(Oc5ccccc5C)ccc4CCN3C(=O)[C@H]2[C@H](C)O)cc1 | inconclusive [activator, single point] | 
13 | CC1CCc2c(C(=O)Nc3ccc(N4CCOCC4)cc3)csc2C1 (stereo not drawn) | active: 7.08 µM | 
14 | CCc1cccc(C)c1NC(=O)C(CC)n1nc(C)c2c(C)n(-c3ccccc3)nc2c1=O (stereo not drawn) |  | inactive: 14%
15 | COc1ccc(OC)c(S(=O)(=O)N2Cc3ccccc3CC2C(=O)Nc2ccc(C)cc2C)c1 (stereo not drawn) | inconclusive [activator, full curve, poor fit] | 
16 | COc1ccc(C=CC(=O)c2cc(O)ccc2O)cc1 | inconclusive [activator, partial curve] | 
17 | CCS(=O)(=O)N1CCc2cc(C(=O)N3CCN(c4ccc(OC)cc4)CC3)ccc21 |  | inactive: 3.31%
18 | CN(Cc1ccccc1N1CCCC1)C(=O)c1cc2cc(Cl)ccc2o1 | inconclusive [activator, partial curve, poor fit] | 
19 | C=C(C)C1CC=C(C)/C(=N\NC(=S)Nc2ccc(C)cc2)C1 (stereo not drawn) | inconclusive [activator, single point] | 
20 | O=S1(=O)N[C@@H](Cc2ccccc2)COc2cc(N3CCSCC3)ccc21 | inconclusive [activator, partial curve] | 
21 | COC(=O)Cc1ccc(NC(=S)NCc2ccc(Cl)cc2)cc1 | inconclusive [activator, partial curve] | 
22 | Cc1cc(OCc2cc(C(=O)N(C)CC3CCOCC3)no2)cc(C)c1Cl | inconclusive [activator, single point] | 
23 | O=C(COC(=O)c1ccc(-c2ccc([N+](=O)[O-])cc2)o1)NC(=O)NC1CCCCC1 |  | inactive: 13%

Row | Structure (SMILES) | Potency | growth rescue (activation)
24 | COc1cccc(-n2c(SCC(=O)N3CCc4ccccc43)nc3c([nH]c4ccccc43)c2=O)c1 |  | inactive: 24.1%
25 | Cc1ccc(C)c(NC(=S)NNC(=O)c2cc3c(s2)CCC(C)C3)c1 (stereo not drawn) | inconclusive [activator, full curve] | 
26 | COC(=O)c1c(C)oc(C)c1S(=O)(=O)NCc1ccc(Cl)cc1Cl | inconclusive [activator, single point] | 
27 | COc1ccc(NC(=O)c2cc(C(C)=O)n3ccccc23)cc1 | inconclusive [activator, partial curve] | 
28 | COc1ccc(NS(=O)(=O)c2ccc(C)cc2)c([N+](=O)[O-])c1 | inconclusive [activator, single point] | 
29 | CC1CCCN(c2ncnc3c2cnn3-c2ccc(F)cc2)C1 (stereo not drawn) | inconclusive [activator, full curve] | 
30 | CC1C/C(=C/c2ccccn2)C(=O)/C(=C/c2ccccn2)C1 (stereo not drawn) |  | inactive: -92.9%
31 | COC(=O)C[C@@H]1C[C@@H]2c3cc(NC(=O)Cc4ccncc4)ccc3O[C@@H]2[C@@H](CO)O1 | inconclusive [activator, partial curve] | 
32 | O=c1c(N2CCN(c3ccccc3)CC2)csc2ccc(Cl)cc12 |  | inconclusive: -93.4% [activator]
33 | CCOC(=O)C1Cn2c(nc3c(c2=O)C(C)(CC)Cc2ccccc2-3)S1 (stereo not drawn) | inconclusive [activator, single point] | 
34 | CCn1nc(C)cc1C(=O)N1CCCC(C(=O)c2ccc(Oc3ccccc3)cc2)C1 (stereo not drawn) | inconclusive [activator, single point] | 
35 | O=C(CCSCc1cccc(Cl)c1)NCc1ccccc1Cl | inconclusive [activator, partial curve] | 
36 | CCN(CC)c1cc(C)c2cc(NC(=O)/C=C/c3ccccc3Cl)ccc2n1 | inconclusive [activator, single point] | 
37 | N#CCC(=O)N/N=C/c1ccc(OC2CSC2)cc1 | inconclusive [activator, single point] | 
38 | Cc1ccc(-c2nn(-c3ccc(F)cc3F)c3c2cnc2ccc(F)cc23)cc1 | inconclusive [activator, partial curve] | 
39 | CN1OC[C@@H]2CN(Cc3cc(Cl)cc(Cl)c3)[C@H](c3cccc(Br)c3)C[C@@H]21 | active: 35.5 µM | 
40 | Cc1[nH]c2ccccc2c1N=Nc1ccc(F)cc1 |  | inconclusive: -91.5% [activator]
41 | COc1cccc(CNC(=O)c2cccc(Br)c2)c1 | active: 22.4 µM | 
42 | CCNc1oc(COc2cccc(C)c2)nc1C#N | inconclusive [activator, full curve, poor fit] | 
43 | CC(C)(C)c1ccc(OCCNCc2ccccc2)cc1 |  | inactive: 0.242%
44 | Nc1nn(-c2ccccc2)c(N)c1N=Nc1ccccc1 | inconclusive [activator, single point] | 
45 | O=C(Nc1nccs1)c1ccc(-c2ccc(F)cc2)o1 | inconclusive [activator, single point] | 
46 | CCCCC1=CC2=C(c3ccco3)C(=O)C(C)(OC(=O)c3ccc(OC)cc3)C(=O)C2=CN1CCc1ccccn1 (stereo not drawn) |  | inactive: -10.4%

Row | Structure (SMILES) | Potency | growth rescue (activation)
47 | CN(C(=O)c1c(Cl)nc2sccn12)C1CCCCC1 | inconclusive [activator, single point] | 
48 | Cc1ccccc1-n1c(SCC(=O)Nc2ccc(Cl)cc2Cl)nc(O)cc1=O |  | inactive: 15.4%
49 | COc1cc(C(=O)OC2CCOC2=O)cc(Cl)c1OC (stereo not drawn) |  | inactive: 7.57%
50 | CC1Oc2ccccc2C(=O)N(CC(=O)c2ccc3c(c2)OCCO3)C1=O (stereo not drawn) | active: 17.8 µM | 
51 | O=C(NCCc1csc(-c2ccccc2)n1)c1ccccc1F | inconclusive [activator, partial curve] | 
52 | CCNC(=O)c1ccc(CSc2nc3ccccc3s2)cc1 | active: 14.1 µM | 
53 | CCOc1ccc(C2CC(=O)NC(SCC(=O)OC)=C2C#N)cc1 (stereo not drawn) | inconclusive [activator, partial curve] | 
54 | O=C(C[C@@H]1C/C=C\CCC(=O)OC[C@@H]2CCCN2C1=O)N[C@@H](CO)Cc1ccccc1 |  | inactive: 15.8%
55 | Cc1ccc(SCCC(=O)NCc2ccco2)cc1 | inconclusive [activator, partial curve, poor fit] | 
56 | O=C(c1ccc2c(c1)OCCO2)N1CCN(c2ccc(C(F)(F)F)cn2)CC1 | inconclusive [activator, partial curve] | 
57 | COc1ccc2c(c1)OCC(O)(c1ccccc1)C2=O (stereo not drawn) | inconclusive [activator, single point] | 
58 | CC(C)(C)c1cc(-c2ccccc2)n[nH]1 | inconclusive [activator, single point] | 
59 | Cn1nc(C(=O)Nc2nc3ccccc3[nH]2)c2ccccc2c1=O | inconclusive [activator, partial curve] | 
60 | C=C1C[C@@]23CCC4[C@@](C)(CCC[C@@]4(C)C(=O)O)C2CC[C@]1(O)C3 (stereo partly drawn) | inconclusive [activator, partial curve] | 
61 | COc1ccc(CC(=O)Nc2c(C(=O)N3CCN(c4ncccn4)CC3)oc3ccccc23)cc1 | inconclusive [activator, partial curve] | 
62 | COc1ccc(Nc2cc(C(=O)NCCc3ccc(C)cc3)c3ccccc3n2)c(OC)c1 | inconclusive [activator, full curve, poor fit] | 
63 | COc1ccc(OC)c(CCNC(=O)c2ccc3c(c2)N(Cc2ccc(C)cc2)CCS3)c1 | inconclusive [activator, partial curve] | 
64 | COc1cc(/C=N/NC(=O)c2cncc(Br)c2)cc([N+](=O)[O-])c1O | inconclusive [activator, partial curve] | 
65 | COc1ccc2c(c1)C(=O)N(c1ccccc1)C(=O)C2 | inconclusive [activator, partial curve, poor fit] | 
66 | CCCS(=O)(=O)N1CCCC(C(=O)Oc2ccc(OC)cc2)C1 (stereo not drawn) | inconclusive [activator, full curve, poor fit] | 
67 | N#CCC(=O)N/N=C/c1ccc(Sc2nc3ccccc3s2)o1 | inconclusive [activator, single point] | 
68 | CCC(C)NC(=O)c1cc2c(=O)n(CC)c3ccccc3c2s1 (stereo not drawn) | inconclusive [activator, partial curve] | 
